According to US12325690B2, “Compounds for the reducing lipotoxic damage” (Mayo Foundation for Medical Education and Research, priority 2017, dated 2025):

How the values were obtained:
[1] = target: T1, recombinant human pancreatic tri-acyl glycerol lipase [PNLIP; hPTL] (Homo sapiens, UniProt P16233); experiment: FFA generation from glyceryl trilinoleate by recombinant hPNLIP with colipase; type: biochemical; details: for IC50: solution stored overnight, with colipase, read-out: IC50 against hPNLIP when stored overnight
T1 sequence (P16233 17-465): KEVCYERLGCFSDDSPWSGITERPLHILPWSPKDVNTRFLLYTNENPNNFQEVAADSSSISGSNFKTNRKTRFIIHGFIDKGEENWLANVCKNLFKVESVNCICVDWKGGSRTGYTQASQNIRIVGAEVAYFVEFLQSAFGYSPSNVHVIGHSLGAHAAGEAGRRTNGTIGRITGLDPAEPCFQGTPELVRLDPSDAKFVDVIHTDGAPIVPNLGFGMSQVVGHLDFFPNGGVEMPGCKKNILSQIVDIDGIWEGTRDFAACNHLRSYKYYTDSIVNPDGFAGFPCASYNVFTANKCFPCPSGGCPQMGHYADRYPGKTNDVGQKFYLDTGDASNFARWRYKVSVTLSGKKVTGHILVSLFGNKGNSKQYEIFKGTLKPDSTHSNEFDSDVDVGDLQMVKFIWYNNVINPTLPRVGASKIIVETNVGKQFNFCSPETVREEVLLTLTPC
T1 sequence (P04118 23-112 partner): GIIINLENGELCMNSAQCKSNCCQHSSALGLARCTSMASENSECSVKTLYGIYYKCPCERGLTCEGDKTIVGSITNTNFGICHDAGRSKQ
Protocol: The efficacy of a selection of the prepared analogs was explored to determine their ability to inhibit free fatty acid (FFA) generation from recombinant human lipases while retaining stability. To test these features, the analogs were dissolved in ethanol (200 mM stock) and further diluted to a 600 micromolar (0.3% ethanol) working stock in PBS. The agents were incubated with the recombinant enzymes in serial ⅓ dilutions spanning a range of 200 to 0.3 micromolar for 30 minutes, and then added to the substrate 1 mM glyceryl trilinoleate (GTL) in PBS, pH 7.4 along with cofactor colipase (CLPS; 0.5 mcg/ml).

[2] = tested on: Mouse pancreatic acinar cells; experiment: Toxicity study in pancreatic acinar cells (ATP levels, LDH leakage); type: cell-based; details: 4 hours, 20-200 micromolar range
Protocol: Toxicity studies of the relevant compounds were also performed using by diluting the original ethanol stock 200 mM into the incubation medium for acinar cells (HEPES buffer, pH 7.4, as described by Navina et al) 600 micromolar stock solutions of the compounds in 0.3% ethanol in PBS. These were added to acinar cells at ⅓ dilutions starting at 200 micromolar. Mouse pancreatic acinar ATP levels and LDH leakage were measured over 4 hours and compared to control. Any number positive over control indicates % injury greater than control acini.

[3] = tested on: pancreatic lysate lipase; experiment: Lipase activity assay with pancreatic lysate (commercial Pointe scientific lipase assay); type: biochemical, mouse; details: freshly prepared solutions; compared with parent 741
Protocol: (§1) To test the efficacy of these compounds, the agents were dissolved as a 20 mM stock in ethanol, and further diluted to in PBS as a 600 micromolar working stock (3.3% ethanol). This was either used immediately or left at room temperature for 16-20 hours overnight before retesting efficacy. The agents were incubated with a pancreatic lysate in serial ⅓ dilutions spanning a range of 200 to 0.3 micromolars for 30 minutes. 5 microliters of these mixtures were then used to measure lipase activity using a commercial lipase assay (Pointe scientific) containing a monoacyl glycerol lipase in the reagent. The lipase assay was done using reagents in proportion to the recommended protocol. Values were depicted as % maximal lipase activity of the well without any inhibitor.

[4] = target: T2, pancreatic lysate lipase (Mus musculus, UniProt Q6P8U6); experiment: as above; type: biochemical; details: fresh solution
T2 construct: efficacy against mouse pancreatic lysates; other: summary of strengths of 767; efficacy as a solution when left overnight; other: solution left overnight; efficacy in the lipase activity assay compared with orlistat when fresh; other: fresh solution; IC50 of orlistat after overnight incubation (nearest tested concentration); other: after overnight incubation; improvement in stability and e
T2 sequence (Q6P8U6 17-465): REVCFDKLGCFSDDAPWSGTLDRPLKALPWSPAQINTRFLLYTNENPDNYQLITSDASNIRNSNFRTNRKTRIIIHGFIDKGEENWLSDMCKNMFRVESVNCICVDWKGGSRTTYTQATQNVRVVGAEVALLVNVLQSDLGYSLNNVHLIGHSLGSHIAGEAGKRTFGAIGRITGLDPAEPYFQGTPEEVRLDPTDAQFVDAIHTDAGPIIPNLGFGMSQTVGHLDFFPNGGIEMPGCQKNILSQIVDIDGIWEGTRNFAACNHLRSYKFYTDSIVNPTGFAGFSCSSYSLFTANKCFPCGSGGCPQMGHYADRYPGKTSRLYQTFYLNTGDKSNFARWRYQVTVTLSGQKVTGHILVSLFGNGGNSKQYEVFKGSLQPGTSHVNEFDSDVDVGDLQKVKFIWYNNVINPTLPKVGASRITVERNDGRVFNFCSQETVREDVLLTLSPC
Protocol: as §1

SMILES: CCCCCCCCCCC[C@@H](C[C@@H]1OC(=O)[C@H]1CCCCCC)OC(=O)[C@H](CNC=O)NC=O [Compound 733]
- IC50 [1]: < 2000 nM

SMILES: CCCCCCCCCCC[C@@H](C[C@@H]1OC(=O)[C@H]1CCCCCC)OC(=O)C(CCCNC=O)NC=O (stereo partly shown) [Compound 734]
- IC50 [1]: < 2000 nM

SMILES: CCCCCCCCCCC[C@@H](C[C@@H]1OC(=O)[C@H]1CCCCCC)OC(=O)[C@H](CCCNC(=N)N)NC=O [Compound 740]
- stability in aqueous solution ([1]; retention of inhibition after overnight storage): best stability
- IC50 [1]: < 2000 nM

SMILES: CCCCCCCCCCC[C@@H](C[C@@H]1OC(=O)[C@H]1CCCCCC)OC(=O)[C@H](CC(=O)O)NC=O [Compound 743]
- IC50 [1]: < 2000 nM
- acinar ATP levels [2]: drop in ATP
- toxicity to acinar cells [2]: toxic to acinar cells

SMILES: CCCCCC[C@@H]1C(=O)OC1CC(CC/C=C/COCCCC)OC(=O)[C@H](C)NC=O (stereo partly shown) [Compound 762]
- lipase inhibition efficacy of β-chain analogs of 741 [3]: decrease in efficacy

SMILES: CCC/C=C/C/C=C/CCC(CC1OC(=O)[C@H]1CCCCCC)OC(=O)[C@H](C)NC=O (stereo partly shown) [Compound 763]
- lipase inhibition efficacy of β-chain analogs of 741 [3]: decrease in efficacy

SMILES: CCCCCCCCCCC[C@@H](C[C@@H]1OC(=O)[C@H]1COCCCC)OC(=O)[C@H](C)NC=O [Compound 768]
- efficacy in the lipase activity assay compared with orlistat when fresh [4]: equivalent efficacy
